Measured values: PubChem BioAssay AID686978 (National Center for Advancing Translational Sciences (NCATS), 2013)
“And” between values parts separate entries of the source, which are not always exact repeats. Equal values may be shown once. Hit rate of the full screen: of about 420,000 compounds, about 64,000 (15%) were called active. Inconclusive means that the source gave no clear call. Such entries were picked first, then a sample of the others. The call rests on the fitted dose curve; in most records, active means well fitted inhibition curve with a large enough effect; inconclusive means small, poorly fitted or top-dose-only effect; inactive means flat fitted curve, though single readings scatter. Where the call is inconclusive, the potency comes from a doubtful curve fit.

Experiment: qHTS for Inhibitors of human tyrosyl-DNA phosphodiesterase 1 (TDP1): qHTS in cells in absence of CPT; further: nearly all actives have a fitted effect of over 55% in size
Details: DT40 Tdp1-/- hTDP1 cells, no CPT, ATP luminescence, 48 h; series mostly up to 46.2 µM
How it was run: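 Chicken DT40 Tdp1-/- cells stably complemented with human TDP1 were seeded at 400 cells/well with DMSO in place of 20 nM camptothecin. After compound pinning, cells grew at least 48 hr at 37 °C; viability read by CellTiter-Glo luminescence.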
Potency means the concentration at half of the fitted maximal effect; tags describe the fitted curve by direction and shape.

SMILES | Potency
Cc1ccc(/C=N/NC(=O)c2nnn(-c3nonc3N)c2C(C)C)o1 | inconclusive: 29.1 µM [inhibitor, single point]
O=C(NCC1CCCO1)C(c1ccc(F)cc1)N(Cc1ccc(F)cc1)C(=O)Cn1nnc(-c2cccs2)n1 (stereo not drawn) | inconclusive: 23.1 µM [inhibitor, partial curve]
CC1CCc2onc(C(=O)NCc3ccco3)c2C1 (stereo not drawn) | inconclusive: 23.1 µM [inhibitor, single point]
Cc1cc(NC(=O)CSc2nnc(CNc3ccc(F)cc3)n2C2CCCCC2)no1 | inconclusive: 22.4 µM [inhibitor, single point]
Cc1ccc(CN2CCN(Cc3cccn3-c3ccccn3)CC2CCO)cc1 (stereo not drawn) | inconclusive: 23.1 µM [inhibitor, single point]
Cc1nn(C)c(Cl)c1S(=O)(=O)N(Cc1ccco1)c1ncnc2nc[nH]c12 | inactive
COc1ccc(C(=O)NCC(c2ccc3c(c2)OCO3)N2CCOCC2)cc1OC (stereo not drawn) | inconclusive: 29.1 µM [inhibitor, single point]
CCOC(=O)CNC(=O)N(CCOC)CC1CCCN(C2Cc3ccccc3C2)C1 (stereo not drawn) | inactive
CN(CCOc1ccc(Br)cc1)CC(O)c1ccccc1 (stereo not drawn) | inconclusive: 29.1 µM [inhibitor, single point]
COCCN(C(=O)COC(=O)CCC(=O)c1ccc(C)cc1)c1c(N)n(Cc2ccccc2)c(=O)[nH]c1=O | inactive
CCOc1ccc(/C=N/NC(=O)c2ccc(F)cc2)cc1CN1CC2CC(C1)c1cccc(=O)n1C2 (stereo not drawn) | inconclusive: 18.4 µM [inhibitor, single point]
O=C(Nc1ccc(-c2csc(Nc3ccccc3)n2)cc1)c1cc([N+](=O)[O-])cc(C(F)(F)F)c1 | active: 18.4 µM
Cc1ccc(C(=O)NC2(C(F)(F)F)N=C(c3ccccc3)N(C3CCCCC3)C2=O)cc1 (stereo not drawn) | inconclusive: 29.1 µM [inhibitor, single point]
O=C1N(c2ccccc2C(F)(F)F)O[C@@]1(c1ccccc1)C1CCCC1 | inactive
O=C(Cc1cccc2ccccc12)N/N=C/c1ccc(Sc2nc3ccccc3s2)o1 | inconclusive: 29.1 µM [inhibitor, single point]
CC(C)(C)OC(=O)NCCCC[C@H](NC(=O)c1[nH]cnc1C(=O)Nc1ccc(CNC(=O)OC(C)(C)C)cc1)C(=O)OC(C)(C)C | active: 4.61 µM
Cc1ccc(C(=O)CSc2ccc(-c3ccncc3)nn2)cc1 | inconclusive: 7.31 µM [inhibitor, partial curve, poor fit]
Cc1nn(Cc2ccccc2)c(Cl)c1/C=C/C(=O)OCC(=O)N1CCCC1=O | inactive
Cc1cccc(C(=O)N2CCc3cc(CNS(=O)(=O)c4cccs4)ccc32)c1 | active: 20.6 µM
COc1ccc(/C([O-])=C(/C(=S)Nc2ccc(C)c(C)c2)n2c[n+](C)c3ccccc32)cc1OC | inconclusive: 20.6 µM [inhibitor, single point]
Cc1ccc2nc(N(Cc3cccnc3)C(=O)CCOc3ccccc3)sc2c1 | inconclusive: 29.1 µM [inhibitor, single point]
CCOC(=O)c1cnc(SC)nc1Oc1cccc(NC(=O)c2cccc(Cl)c2Cl)c1 | inconclusive: 23.1 µM [inhibitor, single point]

SMILES | Potency
CC(=O)Nc1ccc(Nc2ncnc3sc4c(c23)CCCC4)cc1 | inconclusive: 20.6 µM [inhibitor, partial curve, poor fit]
Cc1cccc(NC(=O)c2cccc3c2-c2ccccc2C3=O)n1 | active: 16.4 µM
O=C(Cn1c(=O)oc2cc(S(=O)(=O)N3CCCCCC3)ccc21)NC1CCCCCCC1 | inconclusive: 18.4 µM [inhibitor, single point]
COCc1ccc(C(=O)N2CCCCC2C(=O)Nc2ccc(-n3nc(C)cc3C)cc2)o1 (stereo not drawn) | inconclusive: 18.4 µM [inhibitor, single point]
CCc1c(C)sc(NC(=O)c2cc(CC(C)C)on2)c1C#N | inactive
CCn1c(CC2C(=O)N(C)c3ccc(Br)cc32)nc2ccccc2c1=O (stereo not drawn) | active: 1.46 µM
CCN1CCN(c2nn3c(=O)c4ccccc4nc3c3ccccc23)CC1 | active: 16.4 µM
O=C(/C(=C/O)N=Nc1cccc(C(F)(F)F)c1)c1ccccc1 | inconclusive: 29.1 µM [inhibitor, single point]
CS(=O)(=O)N1CCC2(CC1)CN(c1ccccn1)C2 | inactive
O=C(NC1CC1)C1=C[C@H](c2coc3ccccc3c2=O)C[C@H](OCc2ccc(CO)cc2)O1 | inactive
O=C(O)/C=C/C(=O)NCCCc1ccccc1 | inconclusive: 29.1 µM [inhibitor, single point]
COc1cc(OC)c(NC(=O)N2CC=C(c3c[nH]c4ccccc34)CC2)cc1Cl | inconclusive: 29.1 µM [inhibitor, single point]
Cn1c(=O)cc(SCC(=O)N2CCN(c3ccccc3)CC2)c2ccccc21 | inactive and inconclusive: 20.6 µM [inhibitor, single point]
O=C(CCC1CCN(C(=O)c2cccc(Cl)c2F)CC1)Nc1ccccc1 | inconclusive: 29.1 µM [inhibitor, single point]
CC1(C)NC(=O)N(CCCOc2ccccc2Br)C1=O | inconclusive: 32.6 µM [inhibitor, partial curve, poor fit]
O=C(Nc1ccc2nc3n(c(=O)c2c1)CCCC3)c1cccnc1Cl | inconclusive: 29.1 µM [inhibitor, single point]
CC1CCCCN1C(=O)COc1ccccc1F (stereo not drawn) | inconclusive: 25.9 µM [inhibitor, single point]
O=C(Nc1ccc2c(c1)OCO2)N1CCN(c2cccc(C(F)(F)F)c2)CC1 | active: 20.6 µM
COc1ccccc1OCc1nc(-c2cccc(C)c2)no1 | inactive
COc1ccccc1CNC(=O)C1CCCN1S(=O)(=O)c1cccc2cccnc12 (stereo not drawn) | inconclusive: 29.1 µM [inhibitor, single point]
O=C(Nc1ccccc1)Nc1ccc(Cl)nc1Cl | inconclusive: 18.4 µM [inhibitor, single point]
